Results: PubChem BioAssay AID504845 (National Center for Advancing Translational Sciences (NCATS), 2011)
Screen size: about 390,000 compounds; about 150 (0.038%) were called active. Inconclusive means that the source gave no clear call. Such entries were picked first, then a sample of the others. Calls follow the shape of the dose curve; as a rule, active = well fitted inhibition curve with a large enough effect; inconclusive = small, poorly fitted or top-dose-only effect; inactive = no such curve, though single readings can be large or run the other way. Where the call is inconclusive, the potency comes from a doubtful curve fit.
% is scaled to controls: 0 for no effect and ±100 for the full control effect; potency is read from the fitted curve at half-maximal effect; tags tell the direction and shape of the fitted curve.
Also: nearly all actives have a fitted effect of over 75% in size.

What follows are compounds tested against Regulator of G-protein signaling 4 (Homo sapiens) (UniProt P49798) (assay: Inhibitors of Regulator of G Protein Signaling (RGS) 4: qHTS). Conditions: Transcreener GDP fluorescence polarization, RGS4-accelerated GTP hydrolysis; series mostly up to 114 µM; activity change, negative = inhibition: at the top concentration.
UniProt P49798, sequence (P49798 whole entry, looked up, the tested form may be a part): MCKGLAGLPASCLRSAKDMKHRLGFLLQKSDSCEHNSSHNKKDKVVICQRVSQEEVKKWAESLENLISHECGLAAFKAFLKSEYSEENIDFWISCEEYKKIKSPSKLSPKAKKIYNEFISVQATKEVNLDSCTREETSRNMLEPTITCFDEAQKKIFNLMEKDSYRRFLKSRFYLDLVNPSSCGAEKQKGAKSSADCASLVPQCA
Text: G-protein-coupled receptors (GPCRs) are well-established targets for drug discovery and development. Members of the "regulator of G-protein signaling" (RGS)-protein superfamily have recently emerged as critical modulators of specific GPCR signaling pathways. […] Combining specific RGS domain inhibitors with existing GPCR agonists should potentiate cellular responses and could also increase the specificity of action of existing therapeutics. Small molecule modulators of RGS domain activity should also have clinical utility in inhibiting or potentiating the actions of endogenous GPCR agonists. In particular, the diversity of RGS proteins with highly localized and dynamically regulated distributions in the human brain makes this family of proteins attractive targets for pharmacotherapy of central nervous system (CNS) disorders such as Parkinson's disease, schizophrenia, and anxiety.
This assay was used to screen the NIH Molecular Libraries Small Molecule Repository (MLSMR) in order to identify a small molecule that inhibits RGS4.
NIH Chemical Genomics Center [NCGC]
NIH Molecular Libraries Probe Centers Network [MLPCN]
Assay Submitter (PI): David Siderovski, University of North Carolina Chapel Hill (School of Medicine)
Two microliters of 500nM (2x working concentration) is dispensed into black medium-binding solid-bottom Kalypsys plates. Then with the Kalypsys pintool 23nl of control and compounds are transferred; the control compound is […] CCG-4986 (working concentration). After a 10 minute incubation at room temperature 2ul of antibody is added with the Kalypsys dispenser; (-)RGS4/Transcreener GDP solution in columns 3 and 4 which consisted of 10nM (2x working concentration) Alexa633, 20uM GTP, and 20 ug/ml GDP antibody and (+)RGS4/Transcreener GDP solution in columns 1,2, and 5 to 48 which consists of 900nM RGS4 (2x working concentration), 10nM Alexa633, 20 ug/ml GDP antibody. The plate is centrifuged at 1000 RPM for 15 seconds to remove any possible bubbles and then incubated for 5 minutes at ambient room temperature. An initial fluorescent polarization read (620 nm/688 nm) is performed on the Envision before the plate is incubated for 90 minutes at 30 deg C at a relative humidity of 80%. The plate is once more centrifuged at 1000 RPM for 15 seconds and another Envision fluorescent polarization (620 nm/688 nm) read is carried out.
For `CC(C)(C)CC(C)(C)SSc1n[nH]c(=S)s1`, the Potency was inconclusive: 44.7 µM [inhibitor, partial curve, poor fit].
`CC(C)C1N=C(c2ccc3c(c2)OCO3)CC(c2ccccc2O)N1` (stereo not drawn) was tested, and the Potency was inconclusive: 50.1 µM [inhibitor, partial curve, poor fit].
In the case of `N/C(=N\OC(=O)c1cccc(Br)c1)c1ccncc1`, the “activity change, negative = inhibition” value is reported as inactive: 19.1%.
`Cc1sc(N)c(C(=O)c2cccc(C(F)(F)F)c2)c1C` was tested, and the “activity change, negative = inhibition” value was inactive: -173% [at 56.9 µM].
For `O=C(NCCN1C(=O)S/C(=C\c2cccnc2)C1=O)C1=NN(c2ccccc2)C(=O)CC1`, the Potency was inconclusive: 44.7 µM [inhibitor, partial curve, poor fit].
`O=S(=O)(NC1CCCCC1Nc1ccc(Cl)cc1)c1ccccc1` (stereo not drawn) was tested, and the Potency was inconclusive: 79.4 µM [inhibitor, partial curve, poor fit].
With `Cc1cc(-c2n[nH]c(=S)n2Cc2ccccc2)cs1` the Potency was inconclusive: 70.8 µM [inhibitor, single point].
With `O=C(NC(=S)NNC(=O)c1cccs1)c1ccc(Br)o1` the Potency was inconclusive: 28.2 µM [inhibitor, full curve, poor fit].
With `OC(C#Cc1ccccn1)c1cccs1` (stereo not drawn) the Potency was inconclusive: 31.6 µM [inhibitor, full curve, poor fit].
`O=C(Nc1ccc(Cn2nnc3ccccc32)cc1)c1ccco1` was tested, and the “activity change, negative = inhibition” value was inactive: 10.6%.
`C=CC#CC[N+]1(CC#Cc2ccccc2)CCOCC1` was tested, and the Potency was inconclusive: 50.1 µM [inhibitor, partial curve, poor fit].
`O=C(NCC1CCCO1)C1CC(=O)N(c2ccc(Cl)cc2)C1` (stereo not drawn) was tested, and the “activity change, negative = inhibition” value was inactive: -1.38%.
`Cc1ccc(CN(C)C(=O)c2cc(S(=O)(=O)N3CCOCC3)ccc2F)o1` was tested, and the “activity change, negative = inhibition” value was inactive: -22.9%.
`COc1ccc2[nH]c(=O)c(CN(CCO)C(=O)c3cccs3)cc2c1` was tested, and the “activity change, negative = inhibition” value was inactive: -17.2%.
With `c1ccc2c(Cc3c[nH]c4ccccc34)c[nH]c2c1` the Potency was inconclusive: 0.134 µM [inhibitor, full curve, poor fit].
For `COC(=O)Nc1c(-c2ccccc2)nc2ccc(Cl)cn12`, the Potency was inconclusive: 100 µM [inhibitor, single point].
For `COC(=O)CSC1=C(C#N)C(=O)NC2(CCCCC2)S1`, the Potency was inconclusive: 17.8 µM [inhibitor, full curve, poor fit].
In the case of `C/C(=N/O)c1cc(C(C)(C)C)c(O)c(C(C)(C)C)c1`, the “activity change, negative = inhibition” value is reported as inactive: 18.2%.
With `CC(C)SCCCCOc1ccc2ccccc2c1` the “activity change, negative = inhibition” value was inactive: -0.218%.
For `COC(=O)c1c(-c2ccc(C)cc2)csc1N`, the Potency was inconclusive: 89.1 µM [inhibitor, single point].
With `O=C(Nc1ncc2c(n1)-c1ccccc1CC2)C1CC1` the Potency was inconclusive: 100 µM [inhibitor, partial curve, poor fit].
In the case of `O=C(Nc1ccc(N2CCOCC2)cc1)c1ccncc1`, the “activity change, negative = inhibition” value is reported as inactive: -7.89%.
`COc1cccc(C(=O)NC(=S)Nc2ccc(N3CCCC3)cc2)c1` was tested, and the Potency was inconclusive: 89.1 µM [inhibitor, partial curve, poor fit].
With `O=C(CNc1ccccc1)c1ccc([N+](=O)[O-])cc1` the Potency was inconclusive: 56.2 µM [inhibitor, partial curve, poor fit].
With `CCOc1ccc(-c2nc(SCC(=O)Nc3ccc(C)c(C)c3)n3[nH]c(=O)cc3n2)cc1` the “activity change, negative = inhibition” value was inactive: -27.8%.
`COc1ccc(C(c2nnnn2Cc2cccs2)N2CCN(c3ccc(F)cc3)CC2)cc1OC` (stereo not drawn) was tested, and the Potency was inconclusive: 44.7 µM [inhibitor, partial curve, poor fit].
`Cc1cc(C)c(S(=O)(=O)N2CCOCC2)cc1C` was tested, and the Potency was inconclusive: 20 µM [inhibitor, full curve, poor fit].
For `Cc1ccc(N2C(=O)CC(Sc3ccccc3C(=O)O)C2=O)c([N+](=O)[O-])c1` (stereo not drawn), the Potency was inconclusive: 89.1 µM [inhibitor, single point].
With `Cc1cc(C)cc(OC(=O)CS(=O)c2ccc(C(F)(F)F)cc2[N+](=O)[O-])c1` (stereo not drawn) the “activity change, negative = inhibition” value was inactive: -29.5%.
For `Cc1cccc(C)c1NC(=O)Cn1nc(-c2ccc(Cl)s2)ccc1=O`, the Potency was inconclusive: 79.4 µM [inhibitor, partial curve, poor fit].
`CNC(=S)N(Cc1ccc(OC)cc1)Cc1cc2cccc(C)c2[nH]c1=O` was tested, and the Potency was inconclusive: 50.1 µM [inhibitor, partial curve, poor fit].
`COc1ccc(/C=C/c2ccc(=O)n(Cc3ccccc3)n2)cc1` was tested, and the Potency was inconclusive: 25.1 µM [inhibitor, full curve, poor fit].
In the case of `CCCOc1cccc(C2C(C(=O)c3cc4ccccc4o3)=C(O)C(=O)N2c2cc(C)on2)c1` (stereo not drawn), the “activity change, negative = inhibition” value is reported as inactive: -35%.
For `N#CCCN(C(=O)COC(=O)CCc1c[nH]c2ccccc12)c1ccc(F)cc1`, the Potency was inconclusive: 100 µM [inhibitor, single point].
For `Cc1nc2[nH]c(=S)[nH]c2cc1Br`, the Potency was inconclusive: 79.4 µM [inhibitor, single point].
For `O=C(/C=C/c1ccc([N+](=O)[O-])cc1)N(c1ccccn1)C1CCCCC1`, the Potency was inconclusive: 44.7 µM [inhibitor, partial curve, poor fit].
For `Cn1cnc2nc(NCCO)nc(NCc3ccccc3)c21`, the Potency was inconclusive: 0.15 µM [inhibitor, full curve, poor fit].
In the case of `COc1ccc(CN(C(=O)/C=C/C(=O)c2ccc(OC)cc2O)C(C(=O)NC2CCCCC2)c2ccncc2)cc1` (stereo not drawn), the “activity change, negative = inhibition” value is reported as inactive: 7.76%.
With `S=c1[nH]c2ccc(Cc3ccc4[nH]c(=S)[nH]c4c3)cc2[nH]1` the Potency was inconclusive: 100 µM [inhibitor, partial curve, poor fit].
For `CCc1ccc2occ(CC(=O)Nc3c(C(=O)Nc4ccc(C)cc4)oc4ccccc34)c2c1`, the Potency was inconclusive: 100 µM [inhibitor, single point].
For `O=C(NC1CCCCC1)N1CCN(Cc2nc3ccccc3c(=O)[nH]2)CC1`, the “activity change, negative = inhibition” value was inactive: -43.4%.
With `O=C(O)C1Nc2c(O)cccc2C2C=CCC12` (stereo not drawn) the Potency was inconclusive: 50.1 µM [inhibitor, partial curve, poor fit].
With `Cc1ccc(CNC(=O)c2ccc3c(=O)[nH]c4c(C(=O)NCC5CCCO5)sc(=S)n4c3c2)cc1` (stereo not drawn) the Potency was inconclusive: 112 µM [inhibitor, partial curve, poor fit].
